Reference: the antibiotic and cytotoxicity screens of Wong et al. (2023)
The list shows a part of the results.

Each molecule was assayed on S. aureus RN4220 (assay: growth inhibition call (relative growth <= 0.2)). Settings: 50 µM.

Growth inhibition call, inactive:
NCCc1nc(-c2ccncc2)no1, CC(C)COC(=O)CNc1n[nH]c(=O)[nH]c1=O, Cc1noc(C)c1S(=O)(=O)N(C)C[C@H]1Oc2ccc(NS(=O)(=O)c3cccs3)cc2CC(=O)N([C@H](C)CO)C[C@@H]1C, CN(C)CCCNC(=O)C[C@@H]1CC[C@H]2[C@@H](COc3ccc(NS(C)(=O)=O)cc3C(=O)N2C)O1, Cc1noc(C)c1NC(=O)N(C)C[C@H]1Oc2ccc(NC(=O)Cn3cnnn3)cc2C(=O)N([C@@H](C)CO)C[C@@H]1C, CO[C@H]1O[C@H](CO)[C@@H](OC(=O)Nc2ccc3c(c2)OCO3)[C@H](OC(=O)Nc2ccc3c(c2)OCO3)[C@@H]1OC(=O)Nc1ccc2c(c1)OCO2, C[C@@H]1CCCCO[C@@H](CN(C)C(=O)Cc2ccccc2)[C@@H](C)CN([C@H](C)CO)C(=O)c2cc(NC(=O)Nc3ccccc3)ccc2O1, O=S(=O)(O)NC1CCCCC1, Cc1noc(C)c1S(=O)(=O)Nc1ccc2c(c1)C(=O)N([C@@H](C)CO)C[C@@H](C)[C@@H](CN(C)C(=O)Nc1ccc(F)cc1)OCCCC[C@@H](C)O2, C[C@H](CO)N1C[C@H](C)[C@@H](CN(C)Cc2ccc(Cl)c(Cl)c2)Oc2ccc(NC(=O)Nc3cccc4ccccc34)cc2CC1=O, Cc1ccc(S[C@]2(C(=O)NCC(C)C)CC(=O)N(Cc3ccccc3C(F)(F)F)[C@@H]2c2ccc(CO)cc2)cc1, C[C@H](CO)N1C[C@H](C)[C@H](CN(C)C(=O)c2ccncc2)OCCCC[C@H](C)Oc2ccc(NS(=O)(=O)c3ccc(Cl)cc3)cc2C1=O, C[C@@H]1CCCCO[C@@H](CN(C)Cc2ccc(C(F)(F)F)cc2)[C@H](C)CN([C@@H](C)CO)C(=O)c2cc(NC(=O)Nc3ccc(F)cc3)ccc2O1, C[C@@H]1CCCCO[C@@H](CN(C)Cc2ccc(Cl)c(Cl)c2)[C@@H](C)CN([C@H](C)CO)C(=O)c2cc(NC(=O)CCCCCC(=O)Nc3ccccc3N)ccc2O1, Cc1cnc(C(=O)Nc2nn[nH]n2)cn1, CC(COc1ccccc1)NC(C)C(O)c1ccc(O)cc1.Cl (stereo unspecified)
